From the RNAGym collection of RNA variant scans (doi:10.7554/elife.90254)
The source gives no read counts; variants with many changes may rest on few reads.

B1: OR4K15 (parent)
chain: GUUAACGGUCAUAGGCCAUGGAAACUAGGAGCACCAUUUCGCUGCCAGUGAAGAAAUGAACAAAGAAAAUCUGGGCCAGGCAGGCAUCAAAAGAAAUAGUCUUGCGCUCAACCAGAAAGUCUGUAAUCAUUUUAAGGGUA

Variants of: B1
Test: self-cleavage, relative activity (ratio to wild type); higher = more cleavage; in vitro, sequencing; the parent is a self-cleaving ribozyme
C42U A63U A96G U108C showed a self-cleavage of 0.02. Work on U43C A51U A69G yielded a self-cleavage of 0.82. Work on A47G G48A A78G yielded a self-cleavage of 0.27. For U43C A95G U130C, the self-cleavage was 2.01. With U43C A66G A92U the self-cleavage was 1.52. C46U A60G A95C U100C gave a self-cleavage of 2.35. Work on U43C A55G A82C A95G A129G yielded a self-cleavage of 0.2. Variant U43A A56G A140G has a self-cleavage of 1.66. With U43C A51U A64G A69G A114G the self-cleavage was 0.19. With A47G A94G U102C U127C the self-cleavage was 2.5. U43C U49C U72C A111G showed a self-cleavage of 0.02. With U43A A47G A51G A52C A59G A86G A135G the self-cleavage was 0.91. A47C A67U U130C gave a self-cleavage of 2.07. In the case of U43C A56G U70C U122C, the self-cleavage is reported as 0.41. C46A A52G A89U showed a self-cleavage of 1.02. Work on U43A U108C U120C A126G yielded a self-cleavage of 0. A47U A82G A90U gave a self-cleavage of 0.47. U43A A68U A98G A114U A135G gave a self-cleavage of 0. Work on U43A A51U A68G yielded a self-cleavage of 1.93. Work on U43C A94G A135U yielded a self-cleavage of 0.12. In the case of U43C A62G A69G U102C, the self-cleavage is reported as 1.36. Variant C46U A66G A82G has a self-cleavage of 0.58. G44U A64U A118G A126G showed a self-cleavage of 1. In the case of U43C A125G A134G, the self-cleavage is reported as 0.58. U43A A54G U72C showed a self-cleavage of 0.18. C45U A59G A86G A117C showed a self-cleavage of 0.38. For U43A A82G A110C U122A, the self-cleavage was 0.05. Variant U43A A78U U139C A140G has a self-cleavage of 0.47. Work on U43C A62G A92G U124A yielded a self-cleavage of 0.13. A47C A62U U102C U130C showed a self-cleavage of 1.17. With A47G U49C A66U U103A the self-cleavage was 0.09. With U43C A55G C85U U122C U130A U131C the self-cleavage was 0.74. Variant U43C U57C U103C has a self-cleavage of 0.14. A47U A129G U132C gave a self-cleavage of 0.35. With C45U U49A U87C the self-cleavage was 0.54. C42U U103C U127C showed a self-cleavage of 0.84. In the case of U43C A82G U102C U130C, the self-cleavage is reported as 0.85. Variant A47G A96G U127A U130C has a self-cleavage of 1.15. For C46U A82G U122A A129G, the self-cleavage was 0.14. For C45U A66U C113U, the self-cleavage was 0.03. Variant C46U A47C A63U U72G has a self-cleavage of 0.28. In the case of C46A U49A A67G U127C, the self-cleavage is reported as 0.43. Work on C42U A95G A125G yielded a self-cleavage of 1.21. In the case of U43C A66U G74A, the self-cleavage is reported as 0.28. In the case of C46U A47G A90G U102C A116G, the self-cleavage is reported as 1.16. With U43C A63G A91G the self-cleavage was 1.05. U43C A51G A64U gave a self-cleavage of 0.63. A47G A62G G136A showed a self-cleavage of 1.35. G44A A52G A92U A140G gave a self-cleavage of 2.56. A47G U57C U100C gave a self-cleavage of 1.26. Variant A47U U57C A68G A135G has a self-cleavage of 0.19. In the case of A47G A94G A110G A125G, the self-cleavage is reported as 0.09. U43G A63U A78U gave a self-cleavage of 0.73. With U43A A60G A90G A92G the self-cleavage was 0.83. With A47G A68G U130C the self-cleavage was 0.52. With U43C A91G A92G A110G the self-cleavage was 0.06. U43C C71A U130C gave a self-cleavage of 0.16. With U43C A62G A67G A118U A126G the self-cleavage was 0.39. Work on U43C A86G A92U U103A U133A yielded a self-cleavage of 0.11. Work on C42U U102A A140G yielded a self-cleavage of 0.48. Variant U43G U127C U130C has a self-cleavage of 0.83. U43C U72C A94G U108C gave a self-cleavage of 0.01. In the case of U43C A96G U122C, the self-cleavage is reported as 0.37. U43A A51G A55G A78G U133C gave a self-cleavage of 0.28. With U43G A68G A90G the self-cleavage was 1.24. In the case of A47G A68U G104A U131C, the self-cleavage is reported as 0.02. In the case of U43C A62G U87C A95G U130C, the self-cleavage is reported as 0.24. U43A A52G A64G A118U showed a self-cleavage of 1.02. Variant U43A A91G A96G U97C U102A has a self-cleavage of 0.18. A47U G73A A82G A125G showed a self-cleavage of 0.04. Work on A47U A116U U122A U133G yielded a self-cleavage of 0. With A47U A52U A60G A114U A126G the self-cleavage was 0.01. For U43A A51G A78G, the self-cleavage was 0.35. U43A A55G A134G gave a self-cleavage of 2.41. U43A A89G A116G showed a self-cleavage of 1.32. In the case of C46U A82U A89G, the self-cleavage is reported as 0.25. A47C U97C U108A showed a self-cleavage of 0.01. U43C C71U A86G A126G showed a self-cleavage of 0.17. C42G A116G U122C showed a self-cleavage of 0.71. For G44A U57C C61U U87C A95G A116G, the self-cleavage was 0.2. With U43C A69G A118G the self-cleavage was 0.76. Work on U43C A60G U130C A134G yielded a self-cleavage of 0.54. For U43C G84A A98U C101A U127A, the self-cleavage was 0.74. For C45U U102C U130G, the self-cleavage was 1.76.
